Values of other authors in publication PMC11006913.
The list shows a part of the results.

molecular target: PITX2 L100Q (Homo sapiens) (UniProt Q99697); settings: PBM; conditions not shown; double strand, one strand shown; scale: upbm affinity estimate (log intensity, higher = more binding, comparable within an allelic series)

| Sequence | binding signal |
| --- | --- |
| CCTCCTCG [8-mer CCTCCTCG] | 8.34 |
| TAATCCCA [8-mer TAATCCCA] | 11.5 |
| CGTTAATC [8-mer CGTTAATC] | 10.9 |
| GAACTGGC [8-mer GAACTGGC] | 8.12 |
| GAGAGCCC [8-mer GAGAGCCC] | 8.2 |
| AGATTAGC [8-mer AGATTAGC] | 10.9 |
| ATTAGCCG [8-mer ATTAGCCG] | 9.57 |
| CTATAATC [8-mer CTATAATC] | 10.6 |
| CCTGGTAG [8-mer CCTGGTAG] | 8.27 |
| CGGTTTAG [8-mer CGGTTTAG] | 9.63 |
| AGCGCGGG [8-mer AGCGCGGG] | 8.29 |
| CCGGTACC [8-mer CCGGTACC] | 8.21 |

molecular target: PITX2 R108H (Homo sapiens) (UniProt Q99697); settings: PBM; conditions not shown; double strand, one strand shown; scale: upbm affinity estimate (log intensity, higher = more binding, comparable within an allelic series)

| Sequence | binding signal |
| --- | --- |
| CGTTGGCC [8-mer CGTTGGCC] | 8.16 |
| GAGCGGGC [8-mer GAGCGGGC] | 8.03 |
| AGCATGCT [8-mer AGCATGCT] | 8.41 |
| CGCCCGAC [8-mer CGCCCGAC] | 8.1 |
| TAGATTAA [8-mer TAGATTAA] | 9.33 |
| GTGCGCCA [8-mer GTGCGCCA] | 8.14 |
| GGATTACC [8-mer GGATTACC] | 9.3 |
| CGGGGTCC [8-mer CGGGGTCC] | 8.09 |
| GGCCCCCC [8-mer GGCCCCCC] | 7.76 |
| CCTGCACC [8-mer CCTGCACC] | 8.11 |
| ATAATCCG [8-mer ATAATCCG] | 9.67 |
| AACCGGGC [8-mer AACCGGGC] | 8.1 |
| AGTTAATC [8-mer AGTTAATC] | 9.34 |
| CGACGGCG [8-mer CGACGGCG] | 8.1 |
| ACGGGTCC [8-mer ACGGGTCC] | 8.14 |
| ATTAAGCC [8-mer ATTAAGCC] | 9.22 |
| CGCCACCC [8-mer CGCCACCC] | 8.14 |
| CCGGTCTC [8-mer CCGGTCTC] | 8.05 |
| GCGCAGAC [8-mer GCGCAGAC] | 8.21 |
| CAGATTAG [8-mer CAGATTAG] | 9.09 |

| Sequence | binding signal |
| --- | --- |
| AAAGATTA [8-mer AAAGATTA] | 9.33 |
| GTCCCCAC [8-mer GTCCCCAC] | 8.05 |
| CGGCCCCC [8-mer CGGCCCCC] | 8.07 |
| GATTAAGC [8-mer GATTAAGC] | 9.24 |
| ACTAATCC [8-mer ACTAATCC] | 9.84 |
| AAGATTAA [8-mer AAGATTAA] | 9.3 |
| CAGGCCCA [8-mer CAGGCCCA] | 8.06 |
| CGGGACCA [8-mer CGGGACCA] | 8.08 |
| CCTCCTCG [8-mer CCTCCTCG] | 8.04 |
| TAATCCCA [8-mer TAATCCCA] | 9.66 |
| CGTTAATC [8-mer CGTTAATC] | 9.39 |
| GAACTGGC [8-mer GAACTGGC] | 8.07 |
| GAGAGCCC [8-mer GAGAGCCC] | 7.94 |
| AGATTAGC [8-mer AGATTAGC] | 9.11 |
| ATTAGCCG [8-mer ATTAGCCG] | 8.59 |
| CTATAATC [8-mer CTATAATC] | 9.3 |
| CCTGGTAG [8-mer CCTGGTAG] | 8.22 |
| CGGTTTAG [8-mer CGGTTTAG] | 8.57 |
| AGCGCGGG [8-mer AGCGCGGG] | 8.14 |
| CCGGTACC [8-mer CCGGTACC] | 8.09 |
